{"source": "the BET-seq Pho4 binding data (Le et al. 2018)", "note": "The other results are listed elsewhere or left out. Values were computed here from the reads of four pooled replicates and scatter widely.", "data": [{"molecular_target": "T1, Pho4 (S. cerevisiae) (UniProt P07270)", "T1 sequence": "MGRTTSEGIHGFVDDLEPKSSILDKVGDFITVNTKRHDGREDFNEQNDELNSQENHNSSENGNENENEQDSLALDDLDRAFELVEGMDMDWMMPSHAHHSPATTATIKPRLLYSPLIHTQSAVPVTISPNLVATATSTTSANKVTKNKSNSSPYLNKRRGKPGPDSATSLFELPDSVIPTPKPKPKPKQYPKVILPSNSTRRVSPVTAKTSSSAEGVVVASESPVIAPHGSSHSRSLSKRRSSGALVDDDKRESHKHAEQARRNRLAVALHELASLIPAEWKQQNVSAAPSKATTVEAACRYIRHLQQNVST", "test": "relative binding free energy (BET-seq); higher = weaker binding", "conditions": "reference: library average", "units": {"relative binding free energy": "kcal/mol"}, "values": [{"sequence": "TGTGGCACGTGAATAG", "relative binding free energy": 0.11}, {"sequence": "AGGTTCACGTGGGTCG", "relative binding free energy": 0.24}, {"sequence": "TGCTACACGTGTGTGA", "relative binding free energy": 0.22}, {"sequence": "GAAATCACGTGGGTGG", "relative binding free energy": 0.17}, {"sequence": "TAGGTCACGTGCTGGA", "relative binding free energy": 0.06}, {"sequence": "TGAGTCACGTGTGGAT", "relative binding free energy": 0.12}, {"sequence": "CAGGCCACGTGGGGGC", "relative binding free energy": -0.16}, {"sequence": "TTGTGCACGTGGTCGA", "relative binding free energy": -0.18}, {"sequence": "GTGTACACGTGGATCG", "relative binding free energy": 0.24}, {"sequence": "GGGGTCACGTGACTAT", "relative binding free energy": 0.3}, {"sequence": "AAGTTCACGTGGTCGT", "relative binding free energy": 0.35}, {"sequence": "CATAACACGTGGGGGT", "relative binding free energy": -0.29}, {"sequence": "GTTTCCACGTGATGAG", "relative binding free energy": 0.26}, {"sequence": "ATTGTCACGTGAGTAT", "relative binding free energy": 0.26}, {"sequence": "TGATTCACGTGGTCAG", "relative binding free energy": 0.32}, {"sequence": "GTACGCACGTGATGGA", "relative binding free energy": 0.1}, {"sequence": "GGTACCACGTGTTGTA", "relative binding free energy": -0.07}, {"sequence": "TACTGCACGTGGGCGG", "relative binding free energy": -0.08}, {"sequence": "GATAGCACGTGTGATG", "relative binding free energy": 0.02}, {"sequence": "ATCGGCACGTGTTTGT", "relative binding free energy": -0.15}, {"sequence": "TTGTTCACGTGATATC", "relative binding free energy": 0.29}, {"sequence": "AGTTACACGTGTCAGG", "relative binding free energy": 0.05}, {"sequence": "TAGTTCACGTGAATAG", "relative binding free energy": 0.13}, {"sequence": "GGGTGCACGTGGTTAC", "relative binding free energy": -0.04}, {"sequence": "GTAATCACGTGGGAAT", "relative binding free energy": 0.19}, {"sequence": "ATTTTCACGTGGTGTC", "relative binding free energy": 0.39}, {"sequence": "TATAGCACGTGGGCGG", "relative binding free energy": -0.14}, {"sequence": "GTTAGCACGTGATTAT", "relative binding free energy": 0.1}, {"sequence": "GATCACACGTGGGGTG", "relative binding free energy": -0.09}, {"sequence": "GATGTCACGTGTCTTT", "relative binding free energy": 0.21}, {"sequence": "AACGACACGTGTTTGG", "relative binding free energy": 0.02}, {"sequence": "TTTCGCACGTGGTGTC", "relative binding free energy": -0.11}, {"sequence": "AGTTTCACGTGATTTC", "relative binding free energy": 0.28}, {"sequence": "CTCGGCACGTGCAGGG", "relative binding free energy": -0.02}, {"sequence": "GGTCTCACGTGGGGTC", "relative binding free energy": 0.13}, {"sequence": "TTGTGCACGTGCTGGT", "relative binding free energy": -0.12}, {"sequence": "TTGCGCACGTGGTAGA", "relative binding free energy": -0.19}, {"sequence": "GCGGTCACGTGGTGCG", "relative binding free energy": -0.18}, {"sequence": "TGATGCACGTGGAAGT", "relative binding free energy": 0.06}, {"sequence": "GGTGACACGTGGTGTC", "relative binding free energy": 0}, {"sequence": "TATGTCACGTGAGCAA", "relative binding free energy": 0.28}, {"sequence": "AGGGGCACGTGGAAAT", "relative binding free energy": 0.07}, {"sequence": "TGCATCACGTGTCATG", "relative binding free energy": 0.23}, {"sequence": "GATTTCACGTGTTGTA", "relative binding free energy": 0.31}, {"sequence": "TCTACCACGTGTGGGG", "relative binding free energy": 0.04}, {"sequence": "GCGGGCACGTGACTGT", "relative binding free energy": 0.13}, {"sequence": "AGGGGCACGTGAGGAT", "relative binding free energy": 0.15}, {"sequence": "TCAGTCACGTGTTGTA", "relative binding free energy": 0.03}, {"sequence": "GCGAGCACGTGGGGTC", "relative binding free energy": -0.1}, {"sequence": "GTAGTCACGTGTTAAG", "relative binding free energy": 0.21}, {"sequence": "AGTTTCACGTGCGAGG", "relative binding free energy": 0.2}, {"sequence": "GAAAGCACGTGGGGTC", "relative binding free energy": -0.18}, {"sequence": "GTAGCCACGTGGCGGG", "relative binding free energy": -0.19}, {"sequence": "GACGGCACGTGCTGGG", "relative binding free energy": 0.04}, {"sequence": "TATGCCACGTGGTTGT", "relative binding free energy": -0.19}, {"sequence": "CGTTGCACGTGTGGAC", "relative binding free energy": 0.11}, {"sequence": "TTGGTCACGTGGGTAT", "relative binding free energy": -0.05}, {"sequence": "GTTTGCACGTGTGGCA", "relative binding free energy": 0.14}, {"sequence": "TCTAGCACGTGTGTAG", "relative binding free energy": -0.13}, {"sequence": "GGTGGCACGTGGCATG", "relative binding free energy": -0.11}, {"sequence": "GTTCGCACGTGTGTAG", "relative binding free energy": 0}, {"sequence": "TTTAACACGTGATATT", "relative binding free energy": -0.01}, {"sequence": "ATATGCACGTGGTTTA", "relative binding free energy": -0.2}, {"sequence": "TGTAGCACGTGAGTGT", "relative binding free energy": 0.06}, {"sequence": "ATGGGCACGTGATCAG", "relative binding free energy": -0.03}, {"sequence": "CACGGCACGTGTATGG", "relative binding free energy": 0.02}, {"sequence": "ATAATCACGTGTGGCG", "relative binding free energy": 0.04}, {"sequence": "TAGGGCACGTGATGGT", "relative binding free energy": 0.02}, {"sequence": "TGAATCACGTGTTGAT", "relative binding free energy": 0.18}, {"sequence": "TATGGCACGTGCCGTG", "relative binding free energy": -0.15}, {"sequence": "AGTGTCACGTGCCGTG", "relative binding free energy": -0.02}, {"sequence": "TGCGTCACGTGGCATG", "relative binding free energy": -0.02}, {"sequence": "GTTTGCACGTGTGGTA", "relative binding free energy": 0.11}, {"sequence": "ATTTGCACGTGGTGCT", "relative binding free energy": -0.1}, {"sequence": "ATGGGCACGTGATCTA", "relative binding free energy": -0.08}, {"sequence": "GTGTGCACGTGGTGAA", "relative binding free energy": -0.01}, {"sequence": "TGTTTCACGTGTGGAT", "relative binding free energy": 0.28}, {"sequence": "AATGTCACGTGTGTCT", "relative binding free energy": 0.04}, {"sequence": "ATCGTCACGTGTGTAT", "relative binding free energy": 0.01}, {"sequence": "AGTGGCACGTGTACGT", "relative binding free energy": 0}, {"sequence": "GTGTGCACGTGAAGGT", "relative binding free energy": 0.23}, {"sequence": "TTGTGCACGTGGTGGG", "relative binding free energy": -0.04}, {"sequence": "GGTAACACGTGGTGTG", "relative binding free energy": -0.11}, {"sequence": "TGGGACACGTGTTTAC", "relative binding free energy": 0.14}, {"sequence": "AGGAACACGTGGAGTA", "relative binding free energy": 0.13}, {"sequence": "ATTTACACGTGGCTGT", "relative binding free energy": 0.01}, {"sequence": "AACGTCACGTGGGTTA", "relative binding free energy": -0.02}, {"sequence": "TATATCACGTGGTAAT", "relative binding free energy": 0.12}, {"sequence": "TAAGGCACGTGGTGGC", "relative binding free energy": -0.13}, {"sequence": "GGTCGCACGTGTTGAT", "relative binding free energy": 0.01}, {"sequence": "TTCTACACGTGTTAGG", "relative binding free energy": 0.09}, {"sequence": "TGATACACGTGTTAGG", "relative binding free energy": 0.07}, {"sequence": "TAAATCACGTGGACGG", "relative binding free energy": 0.25}, {"sequence": "TTTTGCACGTGGCAAG", "relative binding free energy": -0.06}, {"sequence": "TGTGTCACGTGGAAGT", "relative binding free energy": 0.12}, {"sequence": "TGTATCACGTGAGTGA", "relative binding free energy": 0.17}, {"sequence": "ATGGCCACGTGTGGAA", "relative binding free energy": 0.08}, {"sequence": "GGTAACACGTGTGGCG", "relative binding free energy": 0.11}, {"sequence": "CTTGACACGTGGTGAT", "relative binding free energy": -0.06}, {"sequence": "TTGTACACGTGATAGA", "relative binding free energy": 0.06}, {"sequence": "TTCACCACGTGTTTGT", "relative binding free energy": -0.02}, {"sequence": "AGCGGCACGTGGTTAG", "relative binding free energy": -0.2}, {"sequence": "GATGGCACGTGGATTT", "relative binding free energy": 0.05}, {"sequence": "TGAGTCACGTGAAGGA", "relative binding free energy": 0.23}, {"sequence": "GGGTTCACGTGAGGTT", "relative binding free energy": 0.54}, {"sequence": "TAATGCACGTGTTATG", "relative binding free energy": -0.01}, {"sequence": "GGATACACGTGATAGG", "relative binding free energy": 0.17}, {"sequence": "TCGTGCACGTGTTTAA", "relative binding free energy": -0.02}, {"sequence": "GGTTGCACGTGGTAAC", "relative binding free energy": 0.05}, {"sequence": "GGTGCCACGTGAGCGG", "relative binding free energy": -0.01}, {"sequence": "TTGGGCACGTGATGTT", "relative binding free energy": 0.05}, {"sequence": "GGGGTCACGTGCGGTC", "relative binding free energy": 0.19}, {"sequence": "TTAATCACGTGGCCGG", "relative binding free energy": 0.18}, {"sequence": "TGTTTCACGTGAAAAT", "relative binding free energy": 0.38}, {"sequence": "CGGTCCACGTGGGGTA", "relative binding free energy": -0.09}, {"sequence": "AGGTGCACGTGTGGAT", "relative binding free energy": 0.08}, {"sequence": "TATAGCACGTGGTGAA", "relative binding free energy": -0.21}, {"sequence": "TATTGCACGTGGGCCT", "relative binding free energy": -0.11}, {"sequence": "AGGGGCACGTGAGGGC", "relative binding free energy": 0.06}, {"sequence": "GTGTTCACGTGCTAGG", "relative binding free energy": 0.17}, {"sequence": "TGCTGCACGTGTTATG", "relative binding free energy": -0.08}, {"sequence": "AGGATCACGTGTCGGT", "relative binding free energy": 0.16}, {"sequence": "TGTGTCACGTGCTGAG", "relative binding free energy": -0.02}, {"sequence": "TGGTACACGTGTTCGT", "relative binding free energy": 0.04}, {"sequence": "ATGGGCACGTGGTTTG", "relative binding free energy": -0.07}, {"sequence": "GTAATCACGTGGCGTT", "relative binding free energy": 0.01}, {"sequence": "TGGATCACGTGGTGCG", "relative binding free energy": 0.13}, {"sequence": "TAGGCCACGTGTGGGA", "relative binding free energy": 0}, {"sequence": "TTCAACACGTGTTATG", "relative binding free energy": 0.06}, {"sequence": "GCGTGCACGTGTGTCG", "relative binding free energy": 0}, {"sequence": "GATCGCACGTGAGGGT", "relative binding free energy": 0.24}, {"sequence": "GAGGGCACGTGTACGA", "relative binding free energy": 0.19}, {"sequence": "GGGGTCACGTGTTTTT", "relative binding free energy": 0.21}, {"sequence": "AAGTTCACGTGCGATT", "relative binding free energy": 0.37}, {"sequence": "TTATACACGTGTTTAG", "relative binding free energy": 0.02}, {"sequence": "AGTATCACGTGATGTG", "relative binding free energy": 0.37}, {"sequence": "TTGTTCACGTGCGACT", "relative binding free energy": 0.29}, {"sequence": "AAGTGCACGTGGCGGC", "relative binding free energy": -0.08}, {"sequence": "TAGGCCACGTGGAGTA", "relative binding free energy": -0.11}, {"sequence": "AGAACCACGTGGGGGT", "relative binding free energy": -0.06}, {"sequence": "TGGTGCACGTGTATGT", "relative binding free energy": 0.16}, {"sequence": "AGAAGCACGTGTGAGG", "relative binding free energy": -0.04}, {"sequence": "TATTTCACGTGTTGGG", "relative binding free energy": 0.32}, {"sequence": "CGTTACACGTGGGGAG", "relative binding free energy": -0.12}, {"sequence": "AGGGGCACGTGTATTA", "relative binding free energy": -0.07}, {"sequence": "AATGTCACGTGGTTTT", "relative binding free energy": 0.16}]}]}
